Laboratory results published in publication PMC4336329 (PLoS ONE, 2015).
Among all 310,000 compounds or so, about 2,200 (0.71%) showed an effect of 50% or more. Effects have a minus sign here. This is one part of the list.

The compounds below were run against human ether-à-go-go-related gene (hERG) potassium channel (human, UniProt Q12809) (assay: primary screen, population patch clamp on CHO cells stably expressing hERG).
Chain of human ether-à-go-go-related gene (hERG) potassium channel (Q12809 whole entry, looked up): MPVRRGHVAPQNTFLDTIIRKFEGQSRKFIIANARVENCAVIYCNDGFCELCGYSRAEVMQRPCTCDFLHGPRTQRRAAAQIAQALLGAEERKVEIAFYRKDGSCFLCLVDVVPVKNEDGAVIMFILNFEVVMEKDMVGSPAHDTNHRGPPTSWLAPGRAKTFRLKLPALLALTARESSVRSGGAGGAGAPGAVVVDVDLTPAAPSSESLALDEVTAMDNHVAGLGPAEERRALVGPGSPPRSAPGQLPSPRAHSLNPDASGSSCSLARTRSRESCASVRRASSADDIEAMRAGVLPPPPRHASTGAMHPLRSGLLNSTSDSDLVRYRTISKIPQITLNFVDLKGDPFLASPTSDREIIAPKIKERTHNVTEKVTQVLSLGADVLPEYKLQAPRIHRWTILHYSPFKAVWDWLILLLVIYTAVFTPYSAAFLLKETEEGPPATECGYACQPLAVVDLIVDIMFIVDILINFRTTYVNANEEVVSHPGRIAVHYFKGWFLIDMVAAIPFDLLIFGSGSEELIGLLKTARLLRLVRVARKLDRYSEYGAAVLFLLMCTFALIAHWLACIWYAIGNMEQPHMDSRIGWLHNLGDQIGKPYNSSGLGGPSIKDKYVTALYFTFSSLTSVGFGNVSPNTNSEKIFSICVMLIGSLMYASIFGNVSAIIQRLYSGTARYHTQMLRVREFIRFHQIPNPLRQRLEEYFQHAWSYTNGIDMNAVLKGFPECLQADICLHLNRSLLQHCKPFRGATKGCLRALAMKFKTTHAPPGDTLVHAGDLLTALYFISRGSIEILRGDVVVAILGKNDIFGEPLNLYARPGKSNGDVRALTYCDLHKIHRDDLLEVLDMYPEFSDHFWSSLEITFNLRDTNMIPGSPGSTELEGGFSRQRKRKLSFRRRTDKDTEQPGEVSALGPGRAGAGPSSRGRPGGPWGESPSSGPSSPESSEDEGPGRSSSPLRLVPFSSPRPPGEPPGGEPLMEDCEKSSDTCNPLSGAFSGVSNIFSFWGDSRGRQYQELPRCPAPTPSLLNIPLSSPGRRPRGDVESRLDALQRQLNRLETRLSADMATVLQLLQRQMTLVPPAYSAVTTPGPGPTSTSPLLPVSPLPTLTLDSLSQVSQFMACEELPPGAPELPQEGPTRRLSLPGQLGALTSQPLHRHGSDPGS

Row | Structure (SMILES) | hERG current change (%, negative = inhibition) at 1uM [%]
1 | COc1ccc(CC(=O)Oc2ccccc2[N+](=O)[O-])cc1 | 10.8
2 | COc1cccc(N2CCN(CC(=O)Nc3ccnn3C3CCCC3)CC2)c1 | 6.03
3 | CC(C)N1CC(C(=O)Nc2cccc([N+](=O)[O-])c2)CC1=O (centres unmarked) | 14.6
4 | O=C(COC(=O)CCC(=O)c1cccs1)NCc1ccccc1 | 25.6
5 | COc1ccccc1NS(=O)(=O)c1cc(NC(=O)c2cc3ccccc3oc2=O)ccc1C | 12.3
6 | O=C(CN1C(=O)c2cccc3cccc1c23)N1CCN(c2cccc(Cl)c2)CC1 | 0.681
7 | CC(=O)c1cccc(NC(=O)c2ccc3c(c2)C(=O)N(Cc2cccnc2)C3=O)c1 | 11.7
8 | COc1ccc(S(=O)(=O)N2CCN(c3ccc(F)cc3)CC2)cc1C(=O)N1CCOCC1 | 14
9 | CCCCn1c(O)c(C(C)=Nc2cccc(C(=O)O)c2)c(=O)[nH]c1=O | 1.18
10 | CN1CCNC(=O)C1CC(=O)NCCC1=CCCCC1 (centres unmarked) | 9.41
11 | CCOC(=O)C1CCN(CCC(=O)Nc2cccc(C)c2)CC1.Cl | -32.6
12 | Cc1ccc(S(=O)(=O)CCC(=O)OCc2cc(C)ccc2C)cc1 | 8.15
13 | O=C(COC(=O)Cc1cccc(C(F)(F)F)c1)Nc1ccc2c(c1)OCCO2 | 11.3
14 | CNC(=O)c1c(NC(=O)c2ccco2)sc(C)c1C | 11.5
15 | CCN(CC)S(=O)(=O)c1ccc(/C=C/C(=O)NC2CCCCC2)cc1 | 11.4
16 | CN(c1ccccc1C(=O)NCc1ccccn1)S(C)(=O)=O | 4.85
17 | CC1(C)O[C@@H]1COc1c2ccoc2cc2oc(=O)ccc12 | 5.25
18 | COc1ccc2cc(OCC(=O)NNC(=O)Nc3ccc(C(C)=O)cc3)ccc2c1 | 10.7
19 | COc1ccc(/C=C/C(=O)NCC(=O)N/N=C/c2ccc(OC)cc2)cc1 | 7.83
20 | CCN(CC(=O)NCCCn1ccnc1)S(=O)(=O)c1ccc(C)cc1 | 8.39
21 | Cc1cc(Cn2nc(-c3ccccc3C)cc2C(=O)O)on1 | 11.9
22 | C/C(=N\NC(=O)c1ccoc1C)c1cccc2ccccc12 | 17.2

Row | Structure (SMILES) | hERG current change (%, negative = inhibition) at 1uM [%]
23 | CC(C)CCN(C(=S)Nc1cccc(F)c1)C(C)c1cccs1 (centres unmarked) | 6.21
24 | Cc1ccc(-c2nn3c(C)nnc3c3ccccc23)cc1S(=O)(=O)NCc1ccccc1 | -15
25 | CC(C)C(=O)N1CCN(c2ccccc2NC(=O)c2ccc([N+](=O)[O-])o2)CC1 | -23.5
26 | CCc1ccc(OCC(=O)Nc2ccc(S(=O)(=O)Nc3ccccn3)cc2)cc1 | 11.9
27 | CC(=O)NC(Cc1ccc(C)cc1)C(=O)NC1CCN(C(=O)c2ccc([N+](=O)[O-])cc2)CC1 (centres unmarked) | 6.17
28 | Cc1ccc(NCc2nnc(SCC#N)o2)c(C)c1 | -1.84
29 | C/C(=N\NC(=O)c1ccn(C)n1)c1ccc(NC(=O)C2CCCC2)cc1 | 5.84
30 | CCNC(=O)Nc1cc2nc(C)n(Cc3ccc(Br)cc3)c2nc1C | 7.69
31 | CC(C)C(NS(=O)(=O)c1ccccc1)C(=O)N1CCCC1 (centres unmarked) | 15.4
32 | Cc1cccc(NC2=C(C#N)C(=O)NC3(CCCC3)S2)c1 | 11.4
33 | O=C(O)c1ccc(Nc2nc3c(s2)CCCC3)cc1 | -44.3
34 | Cn1c(=O)c(C(=O)COC(=O)c2cc(-c3ccccc3)nc3ccccc23)c(N)n(Cc2ccccc2)c1=O | 12
35 | COC(=O)C(NC(=O)CCc1nnc2ccc(N3CCCCC3)nn12)C(C)C (centres unmarked) | 9.65
36 | CCOCCCNC(=O)/C(C#N)=C/c1ccc(C(=O)OC)cc1 | 2.69
37 | Cc1ccc2nc(NC(=O)CNS(=O)(=O)c3ccc(Br)s3)sc2c1 | 5.76
38 | CCc1ccc(-c2cc(C)no2)cc1S(=O)(=O)NCCc1ccc(S(N)(=O)=O)cc1 | 14.5
39 | CC(C(=O)NC1CC1)c1ncc(C(F)(F)F)cc1Cl (centres unmarked) | 6.91
40 | CCCCN1C(=O)C(=O)N(CC(=O)Nc2sc(C)c(CC)c2C(=O)OCC)C1=O | 15
41 | CCN(CC)Cc1c(O)ccc2c(-c3ccccc3)cc(=O)oc12 | 2.12
42 | CCCn1c(SCC(=O)Nc2nc(C)c(C(=O)OC)s2)nnc1C(C)C | -5.47
43 | NC(=O)NOCc1ccccc1F | 15.9
44 | Cc1cc(NCCCO)n2c(nc3ccccc32)c1C#N | 9.7

Row | Structure (SMILES) | hERG current change (%, negative = inhibition) at 1uM [%]
45 | COc1cccc(OCc2cc(C(=O)N3CCN(C(=O)c4ccco4)CC3)no2)c1 | -7.14
46 | COc1ccc2c(c1)CCc1c(C(=O)NCc3ccc(F)cc3)noc1-2 | 14.2
47 | CC(=O)N1CCCc2ccc(NS(=O)(=O)c3ccccc3)cc21 | 16.7
48 | CN(C)c1ccc(N=Cc2ccco2)cc1 | 2.62
49 | CCN(CC)C(=O)Cn1cc(S(=O)(=O)CC(=O)Nc2ccc(F)cc2F)c2ccccc21 | 8.5
50 | O=C(Nc1nccs1)c1ccc(NC(=O)c2ccco2)cc1 | 7.13
51 | CC1=CC=CC2=N/C(=N\S(=O)(=O)c3ccc(F)cc3F)c3ccccc3CN12 | 0.709
52 | CCOC(=O)c1cn(CC)c2cc(N3CCCCC3)c(F)cc2c1=O | 3.75
53 | O=[N+]([O-])c1cccc(NNS(=O)(=O)c2ccccc2F)c1 | -2.27
54 | COc1ccccc1NS(=O)(=O)c1ccc2c(c1)N(C(C)=O)CC(C)S2 (centres unmarked) | 4.01
55 | O=C(O)CC/C(=C\c1ccccc1[N+](=O)[O-])c1nc2ccccc2s1 | 8.42
56 | CC1CCCCC1NC(=O)C1CC(=O)N(Cc2ccccc2)C1 (centres unmarked) | 10.2
57 | O=C(NC(=S)Nn1cnc2c(cnn2-c2ccccc2)c1=O)c1ccc(Cl)cc1 | 11.4
58 | COc1ccc(N(C)S(=O)(=O)c2cccc(C(=O)OC(C)C(=O)NC3CCCCC3C)c2)cc1 (centres unmarked) | 12.7
59 | CCCCCCCCSc1n[nH]c(N)n1 | -1.57
60 | CCOC(=O)c1[nH]c(C)c(C(=O)N2CCc3c([nH]c4ccccc34)C2c2ccccn2)c1C (centres unmarked) | 8.78
61 | Cc1c(NC(=O)CSc2n[nH]c(=O)n2-c2ccccc2)c(=O)n(-c2ccccc2)n1C | 12.8
62 | COc1cccc(CC(=O)Nc2cc(S(=O)(=O)N3CCOCC3)ccc2N2CCN(C)CC2)c1 | 0.424
63 | O=C(COC(=O)/C=C/c1ccc(F)cc1)NCc1ccco1 | 4.62
64 | CSc1nc(Cl)c(Cc2ccc(OC(C)C)cc2)c(N2CCOCC2)n1 | 12.4
65 | Cc1nn(-c2ccccc2)c(C)c1C(=O)OCC(=O)N1CC(=O)Nc2ccccc21 | 11.9
66 | N/C(=N\OC(=O)Nc1ccccc1)c1ncc([N+](=O)[O-])s1 | 2.58

Row | Structure (SMILES) | hERG current change (%, negative = inhibition) at 1uM [%]
67 | CCn1ccc(C(=O)NC2=C(C#N)CCC2)n1 | 9.82
68 | Cc1oc(-c2ccc(Cl)cc2)nc1CS(=O)CC(=O)NCCN1CCCCCC1 (centres unmarked) | 9.89
69 | CCn1c(Oc2ccccc2C)nc2c1c(=O)n(C)c(=O)n2C | 13.2
70 | CCN1CCN(C(=O)c2ccc(N3CC4CC(C3)c3cccc(=O)n3C4)c(NC(=O)c3cc(OC)cc(OC)c3)c2)CC1 (centres unmarked) | 10.2
71 | O=C(Nc1ccccc1C(F)(F)F)N1CCN(C(c2ccccc2)c2ccccc2)CC1 | 18.7
72 | O=C(c1ccccc1F)N1CCN(c2ncccn2)CC1 | 6.3
73 | C/C(=N\Nc1nccnc1Cl)c1ccc(Cl)c(Cl)c1 | 10.6
74 | C=C1CCC[C@]2(C)C[C@H]3OC(=O)C(CN4CC(C)OC(C)C4)[C@H]3C[C@@H]12 (some centres unmarked) | -3.22
75 | O=c1nc2s/c(=C\c3ccco3)c(=O)n2nc1Cc1ccc(F)cc1 | -1.12
76 | CCOC(=O)[C@@H]1[C@H]2COc3cc(OC)ccc3[C@@H]2N2C(=O)N(c3ccc(Cl)cc3)C(=O)[C@@]12C | 2.07
77 | CCOc1ccc(C(=O)Nc2cc(C)ccn2)cc1 | 7.02
78 | O=C(NCCc1ccc(S(=O)(=O)N2CCCC2)cc1)c1cccs1 | 10.2
79 | Cc1cccc(CN2CCN(CC(=O)NCc3ccc(F)cc3)C2=O)c1 | 7.12
80 | O=C(CNCCc1ccc(Cl)cc1Cl)NCc1ccco1 | 0.503
81 | C[n+]1ccccc1/C=C/c1c(F)cccc1F.[I-] | 16.1
82 | O=C(N/N=C/c1cc(Br)ccc1O)c1cccc(N2CCCC2=O)c1 | 5.86
83 | O=C(CNS(=O)(=O)c1ccccc1)Nc1ccc2c(c1)OCO2 | 10.3
84 | CCC1CN(C(=O)N2CCC(C(=O)NCCc3ccc(OC)cc3OC)CC2)c2ccccc2O1 (centres unmarked) | -31.5
85 | COc1ccc(NC(=O)CC2C(=O)N(c3cccc(OC)c3)C(=O)N2CCC(C)C)cc1 (centres unmarked) | 7.68
86 | O=C(c1cc2ccccc2o1)N1CCC(N2CCC(C(=O)N3CCCC3)CC2)CC1 | -16.8
